{
  "source": "the RNAGym collection of RNA variant scans (doi:10.1093/nar/gkz1192)",
  "parents": {"B1": {"name": "CPEB3 Ribozyme (parent)", "chain": "UAACAGGGGGCCACAGCAGAAGCGUUCACGUCGCAGCCCCUGUCAGAUUCUGGUGAAUCUGCGAAUUCUGCUGUAUAUCUC"}},
  "note": "The source gives no read counts; variants with many changes may rest on few reads.",
  "data": [
    {"variants_of": "B1", "assay": "self-cleavage, relative activity (ratio to wild type); higher = more cleavage; in vitro, sequencing", "summary_of_the_method": "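Libraries of CPEB3 self-cleaving ribozyme mutants came from rounds of error-prone PCR and carried barcodes, which DNA sequencing matched to variants. In vitro transcription used T7 RNA polymerase at 37°C for 5 hours, with a further 15 min in DNase I before EDTA stopped the reaction; the ribozymes cleaved during both steps. The RNA was reverse transcribed with template switching and sequenced on Illumina. Relative activity is the cleaved/total read fraction of a variant divided by that of the unmutated ribozyme, averaged over three batches with at least 5 reads.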", "values": [
      {"variant": "UAACAGGGGGCCACAGCAGAAGCGUUCACGUCGCAGCCCCUGUCAGAAUCUGGUGACUCUGCGAAUUCUGCUAUAUAUCUC", "note": "[U48A A57C G73A]", "self-cleavage": 1.05},
      {"variant": "UAACAGGGGGCCACAGCAGAAGCGUUCACGUCGCAGCCCCUGUCAGAAUCUGGUGAUUCUGCGAAUUCUGCUGUAUAUCCC", "note": "[U48A A57U U80C]", "self-cleavage": 1.21},
      {"variant": "UAACAGGGGGCCACAGCAGAAGCGUUCACGUCGCAGCCCCUGUCAGAAUCUGGUAAAACUGCGAAUUCUGCUGUAUAUCUC", "note": "[U48A G55A U58A]", "self-cleavage": 0.2},
      {"variant": "UAACAGGGGGCCACAGCAGAAGCGUUCACGUCGCAGCCCCUGUCAGAACCUGGUGAAUCUGCGAAAUCUGCUGUACAUCUC", "note": "[U48A U49C U66A U76C]", "self-cleavage": 0.19},
      {"variant": "UAACAGGGGGCCACAGCAGAAGCGUUCACGUCGCAGCCCCUGUCAGAAUCAGGUGAAUCCGCGAAUUCUGCUGUAUACCUC", "note": "[U48A U51A U60C U78C]", "self-cleavage": 0.14},
      {"variant": "UAACAGGGGGCCACAGCAGAAGCGUUCACGUCGCAGCCCCUGUCAGAAUCUGGCGAAUCUGCGAAUUCUGCUGUAUACCUC", "note": "[U48A U54C U78C]", "self-cleavage": 0.3},
      {"variant": "UAACAGGGGGCCACAGCAGAAGCGUUCACGUCGCAGCCCCUGUCAGACUCUGGUGGAUCUGCGAGUUCUGCUGUAUAUCUC", "note": "[U48C A56G A65G]", "self-cleavage": 0.35},
      {"variant": "UAACAGGGGGCCACAGCAGAAGCGUUCACGUCGCAGCCCCUGUCAGACUCUGGUGUAUCUGCGGAUUCUGCCGUAUAUCUC", "note": "[U48C A56U A64G U72C]", "self-cleavage": 0.35},
      {"variant": "UAACAGGGGGCCACAGCAGAAGCGUUCACGUCGCAGCCCCUGUCAGACUCUGGUGUAUCUGCGAAUUCUGCAGUAUACCUC", "note": "[U48C A56U U72A U78C]", "self-cleavage": 0.12},
      {"variant": "UAACAGGGGGCCACAGCAGAAGCGUUCACGUCGCAGCCCCUGUCAGACUCUGGUGAGACCGCGAAUUCUGCGGUAUAUUUC", "note": "[U48C A57G U58A U60C U72G C79U]", "self-cleavage": 0.13},
      {"variant": "UAACAGGGGGCCACAGCAGAAGCGUUCACGUCGCAGCCCCUGUCAGACUCUGGUGAGUCUGCGAAUUCUGCUGUAUAACUC", "note": "[U48C A57G U78A]", "self-cleavage": 1.26},
      {"variant": "UAACAGGGGGCCACAGCAGAAGCGUUCACGUCGCAGCCCCUGUCAGACUCUGGUGAUUCUGCGAGUUCUGCCGUAUGUCUC", "note": "[U48C A57U A65G U72C A77G]", "self-cleavage": 0.36},
      {"variant": "UAACAGGGGGCCACAGCAGAAGCGUUCACGUCGCAGCCCCUGUCAGACUCUGGUGAUUCUGCGAAUUCUGCUGCAUAACUC", "note": "[U48C A57U U74C U78A]", "self-cleavage": 0.72},
      {"variant": "UAACAGGGGGCCACAGCAGAAGCGUUCACGUCGCAGCCCCUGUCAGACUCUGGUGAAUCUGCGAGUUCCGCUGUAUAACUC", "note": "[U48C A65G U69C U78A]", "self-cleavage": 0.19},
      {"variant": "UAACAGGGGGCCACAGCAGAAGCGUUCACGUCGCAGCCCCUGUCAGACUAUGGUGAAUCUGCGAGUCCUGCCGUAUAUCUC", "note": "[U48C C50A A65G U67C U72C]", "self-cleavage": 0.09},
      {"variant": "UAACAGGGGGCCACAGCAGAAGCGUUCACGUCGCAGCCCCUGUCAGACACCGGUGAAUCUGCGAAUUCUGCUGUAUAUCUC", "note": "[U48C U49A U51C]", "self-cleavage": 0.51},
      {"variant": "UAACAGGGGGCCACAGCAGAAGCGUUCACGUCGCAGCCCCUGUCAGACCCUGGUAGAUCUGCGAAUUCUGCUGUAUAUCUC", "note": "[U48C U49C G55A A56G]", "self-cleavage": 0.31},
      {"variant": "UAACAGGGGGCCACAGCAGAAGCGUUCACGUCGCAGCCCCUGUCAGACCCUGGUGAAUCUGCGAAUUCUGCUGCAUAUCUC", "note": "[U48C U49C U74C]", "self-cleavage": 0.42},
      {"variant": "UAACAGGGGGCCACAGCAGAAGCGUUCACGUCGCAGCCCCUGUCAGACCCUGGUGAAUCUGCGAAUUCUGCUGUACAUCUC", "note": "[U48C U49C U76C]", "self-cleavage": 0.41},
      {"variant": "UAACAGGGGGCCACAGCAGAAGCGUUCACGUCGCAGCCCCUGUCAGACGCUGGUGAAUCUGCGAAUUCAGCUGUACAUCUC", "note": "[U48C U49G U69A U76C]", "self-cleavage": 0.09},
      {"variant": "UAACAGGGGGCCACAGCAGAAGCGUUCACGUCGCAGCCCCUGUCAGACUCAGGUGAAUCUGCGAAUUCCGCUGUAUAUCUC", "note": "[U48C U51A U69C]", "self-cleavage": 0.16},
      {"variant": "UAACAGGGGGCCACAGCAGAAGCGUUCACGUCGCAGCCCCUGUCAGACUCCGGUGGAUCUGCGAGUUCUGCUGUAUAUCUC", "note": "[U48C U51C A56G A65G]", "self-cleavage": 0.19},
      {"variant": "UAACAGGGGGCCACAGCAGAAGCGUUCACGUCGCAGCCCCUGUCAGACUCCGGUGUAUCUGCGAAUUCUGCUGUAUAUCAC", "note": "[U48C U51C A56U U80A]", "self-cleavage": 0.32},
      {"variant": "UAACAGGGGGCCACAGCAGAAGCGUUCACGUCGCAGCCCCUGUCAGACUCCGGUGAAUCUGCGAGUUCUGCUGUAUAUCCC", "note": "[U48C U51C A65G U80C]", "self-cleavage": 0.2},
      {"variant": "UAACAGGGGGCCACAGCAGAAGCGUUCACGUCGCAGCCCCUGUCAGACUCUGGCGAAUCUGCAAAUUCUGCUGUAUAUCUC", "note": "[U48C U54C G63A]", "self-cleavage": 0.52},
      {"variant": "UAACAGGGGGCCACAGCAGAAGCGUUCACGUCGCAGCCCCUGUCAGACUCUGGGGAAUCUGCGAAUUCUGCUGUAUAUCCC", "note": "[U48C U54G U80C]", "self-cleavage": 0.24},
      {"variant": "UAACAGGGGGCCACAGCAGAAGCGUUCACGUCGCAGCCCCUGUCAGACUCUGGUGAAACUGCGAAUUCUGCUGUAUAACUC", "note": "[U48C U58A U78A]", "self-cleavage": 0.3},
      {"variant": "UAACAGGGGGCCACAGCAGAAGCGUUCACGUCGCAGCCCCUGUCAGACUCUGGUGAAACUGCGAAUUCUGCUGUAUAUCGU", "note": "[U48C U58A U80G C81U]", "self-cleavage": 0.1},
      {"variant": "UAACAGGGGGCCACAGCAGAAGCGUUCACGUCGCAGCCCCUGUCAGACUCUGGUGAACCUGCGAAUUCUGCUGUAAAUCUC", "note": "[U48C U58C U76A]", "self-cleavage": 0.11},
      {"variant": "UAACAGGGGGCCACAGCAGAAGCGUUCACGUCGCAGCCCCUGUCAGACUCUGGUGAAUCAGCGAAUUCAGCUGUAUAUCUC", "note": "[U48C U60A U69A]", "self-cleavage": 0.29},
      {"variant": "UAACAGGGGGCCACAGCAGAAGCGUUCACGUCGCAGCCCCUGUCAGACUCUGGUGAAUCAGCGAAUUCUGCUGUAUACCUC", "note": "[U48C U60A U78C]", "self-cleavage": 0.18},
      {"variant": "UAACAGGGGGCCACAGCAGAAGCGUUCACGUCGCAGCCCCUGUCAGACUCUGGUGAAUCUGCGAACUCUGCCGUAUAUCUC", "note": "[U48C U66C U72C]", "self-cleavage": 0.25},
      {"variant": "UAACAGGGGGCCACAGCAGAAGCGUUCACGUCGCAGCCCCUGUCAGACUCUGGUGAAUCUGCGAACUCUGCUGUAUACCUC", "note": "[U48C U66C U78C]", "self-cleavage": 0.17},
      {"variant": "UAACAGGGGGCCACAGCAGAAGCGUUCACGUCGCAGCCCCUGUCAGACUCUGGUGAAUCUGCGAACUCUGCUGUAUAUCAC", "note": "[U48C U66C U80A]", "self-cleavage": 0.14}
    ]}
  ]
}
